# In paper doi:10.1101/2024.08.22.609182 (bioRxiv, 2024):
# B1: AIFM1 W196A (Cβ-clasp mutant, constitutive C-loop release variant) (domain or fragment)
# chain: not shown
# How the values were obtained:
# [1] = biological target: adenylate kinase 2 (AK2), recombinant human (human, UniProt P54819); assay: SEC
# SEC = biological target: the molecule itself; assay: SEC
binder,measurement,setting,value
B1,binding result,[1],binds
same,stoichiometry N,SEC,2
